Assay results taken from the supplement of paper PMC10441789.
The other results are listed elsewhere or left out. Antibody binding of pooled human sera (four to six donors per pool; dilution not stated) to peptides of the Trypanosoma cruzi antigen TSSA on microarrays. Quantile-normalised fluorescence in arbitrary units, mean of duplicate arrays; higher = more binding. No active / inactive call. The uninfected pools are read here as the healthy donors of the same country. The strongest signals lie near the top of the scale (about 60,000).

system: pooled sera of uninfected people, Colombia; assay: antibody binding signal (normalised fluorescence) (arbitrary fluorescence units); higher = stronger serum antibody binding to peptide
Experimental: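 Microarray of 15-residue peptides over residues 30-55 of Trypanosoma cruzi TSSAII, each with 1 to 10 substitutions at naturally variable positions, probed with one serum pool per country.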

Sequence | antibody binding signal
GKEKKPAAGETPSQP | 157
NKPATGGAPSQPGAS | 396
TDKKTAAGETPSQPG | 781
TDNKTATGEAPSQPG | 122
PPSGTEKKTAAGGTP | 211
GTENKAAAGGAPSPS | 321
EKKPATGETPSQPGA | 309
SGKEKKAAAGGTPSQ | 120
TPPSGKDNKAAAGEA | 303
KKTAAGGTPSQPGAS | 249
DKKTAAGGTPSPPGA | 325
PPSGKENKPATGGAP | 537
GKDNKPATGGAPSQP | 173
PPSGKDKKAAAGGTP | 257
STPPSGTEKKTATGG | 131
SGTEKKAATGGTPSQ | 1330
GTENKTATGEAPSPP | 202
ENKTAAGETPSQSGA | 126
DKKAAAGETPSPSGA | 180
GKENKTATGEAPSQS | 179

Sequence | antibody binding signal
GTEKKTAAGGAPSPP | 389
GKDNKTATGEAPSPS | 377
NKTAAGGTPSPPGAS | 795
KEKKTATGGAPSPSG | 79.3
EKKAAAGGTPSPSGA | 177
KEKKPATGEAPSPSG | 160
KENKTAAGEAPSQPG | 133
TSSTPPSGTDNKPAT | 371
EKKPATGEAPSQPGA | 284
KENKPAAGEAPSQSG | 109
SGTDKKAAAGGTPSP | 372
TPPSGTENKTATGET | 337
ENKPAAGEAPSPSGA | 86.7
GTENKPATGGTPSQP | 237
NKTAAGGTPSQSGAS | 439
PSGTDKKAATGGTPS | 631
PSGKEKKAATGGTPS | 353
SGTENKPATGEAPSP | 185
TEKKTAAGGTPSPSG | 293
GTEKKAAAGGTPSQP | 141
